Measurements from PubChem BioAssay AID651820 (National Center for Advancing Translational Sciences (NCATS), 2012).
Several values for one entry are separate records, joined by “and”; a condition that tells them apart may be missing. Identical values can stand only once. The campaign covered roughly 340,000 compounds. About 12,000 (3.5%) were called active. This list was built around the results that the source calls inconclusive (neither active nor inactive); the mix of calls is not that of the screen. Calls follow the shape of the dose curve; as a rule, active = well fitted inhibition curve with a large enough effect; inconclusive = small, poorly fitted or top-dose-only effect, or another doubt; inactive = no such curve, though single readings can be large or run the other way. Potencies of inconclusive entries are doubtful fits and often do not repeat.

Test: qHTS Assay for Inhibitors of Hepatitis C Virus (HCV)
Details: Huh7.5.1 HCVcc-Cre (HCVcc is cell-culture hepatitis C virus) infection, luciferase reporter, 44 h; series mostly up to 41.8 µM
How it was run: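 Antiviral activity was scored by luciferase reporter output from cells infected with HCVcc-Cre (~0.5 moi) in presence of compound, 44 h infection period, cells seeded 1,000/well 4 h prior.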
Potency is read from the fitted curve at half-maximal effect; tags tell the direction and shape of the fitted curve.

SMILES | Potency
COc1ccc(C(=O)C[n+]2cccc3cc(OC)ccc32)cc1 | inconclusive: 10 µM [inhibitor, partial curve]
COc1ccc(CCNC(=O)c2cccc(S(=O)(=O)N3CCCCC3)c2)cc1 | inconclusive: 14.1 µM [inhibitor, partial curve]
CC(C)c1ccc2c(c1)CC[C@H]1[C@](C)(CN)CCC[C@]21C | inconclusive: 4.47 µM [inhibitor, single point]
O=C(O)c1ccc(CSc2nnc(-c3ccccc3)n2-c2ccccc2)cc1 | inactive
C=CCNC(=O)CSc1n[nH]c(-c2cc(Cl)ccc2OC)n1 | inconclusive: 11.2 µM [inhibitor, single point]
Cc1ccccc1CSc1nnc([C@@H]2CCCN2)o1 | inactive
O=C(COc1ccccc1[N+](=O)[O-])Nc1cccc(Cl)c1N1CCOCC1 | inconclusive: 31.6 µM [inhibitor, single point]
CCN(CC)CCNc1ccc2nnc(CCNS(=O)(=O)c3ccc(C)cc3)n2n1 | inactive
Cc1c(C(=O)N2CCN(C(=O)c3ccco3)CC2)sc2nc(-c3ccc(F)cc3)cn12 | inconclusive: 8.91 µM [inhibitor, partial curve]
Cc1cccc(CCNC(=O)CCc2nc(-c3ccccc3F)no2)c1 | inconclusive: 31.6 µM [inhibitor, single point]
CC12CCC(=O)C=C1CCC1C2C(O)CC2(C)C1CCC2(O)C(=O)COC(=O)COCC(=O)O (stereo not given) | inactive
Cc1ccccc1C(=O)Nc1ccc(N2CCCC2)cc1 | inconclusive: 7.94 µM [inhibitor, partial curve]
CC(C)(O)C#Cc1ccc(C(=O)NCCC(=O)O)s1 | inactive
CSc1ccc(CN2C(=O)NC3(CCCCC3)C2=O)cc1 | inconclusive: 28.2 µM [inhibitor, single point]
CCOC(=O)CNc1nc(-c2ccncc2)nc2ccccc12 | inconclusive: 12.6 µM [inhibitor, partial curve]
COc1cc(/C=C/C(=O)NC(=O)c2ccccc2O)ccc1OC(C)=O | inactive
Nc1nc(-c2ccccc2)cn1/N=C/c1ccccc1 | inconclusive: 10 µM [inhibitor, single point]
O=C(N/N=C/c1ccc2c(c1)OCO2)c1ccc(NS(=O)(=O)c2cccs2)cc1 | inactive
COc1ccc(N2CCN(C(=O)COC(=O)c3cccc(S(=O)(=O)Nc4cccc(C)c4)c3)CC2)cc1 | inconclusive: 10 µM [inhibitor, partial curve]
CCOC(=O)N1CCN(CCc2ccccc2)CC1 | inactive
COc1ccccc1OC(=O)CCc1nc2ccccc2s1 | inconclusive: 0.501 µM [inhibitor, full curve, poor fit]
CCc1ccc(NC(=O)C2CCCN2S(=O)(=O)c2ccc3c(c2)C(C)(C)C(=O)N3C)cc1 (stereo not given) | inconclusive: 22.4 µM [inhibitor, single point]
COc1ccc2c(c1)OC(=O)CC2c1ccccc1OC (stereo not given) | inconclusive: 5.01 µM [inhibitor, single point]

SMILES | Potency
Cc1ccc(-n2cnn(-c3ccc([N+](=O)[O-])cc3[N+](=O)[O-])c2=O)cc1 | inconclusive: 8.91 µM [inhibitor, single point]
Cn1c(=O)c2c(nc(Oc3cccc(Br)c3)n2C)n(C)c1=O | inactive
COc1cc(-c2nc(S(=O)(=O)c3ccc(C)cc3)c(N(C)C)o2)cc(OC)c1OC | inconclusive: 11.2 µM [inhibitor, partial curve]
Cc1cccc2nc(CSc3nc4ccc([N+](=O)[O-])cc4[nH]3)cn12 | inconclusive: 20 µM [inhibitor, single point]
CC(=O)Nc1cc2c3ccccc3n(C)c2cc1[N+](=O)[O-] | inconclusive: 5.01 µM [inhibitor, full curve, poor fit]
COc1ccc(NC(=O)c2ccc(COc3ccccc3)o2)cc1 | inconclusive: 11.2 µM [inhibitor, single point]
O=c1c2ccccc2nc(/C=C/c2cc(Br)ccc2O)n1CCO | active: 14.1 µM
Cc1nc(-c2cccc(S(=O)(=O)N3CCCCCC3)c2)cs1 | inconclusive: 15.8 µM [inhibitor, single point]
CC(=O)C1=C(C)NC(=O)NC1c1ccc(Cl)cc1 (stereo not given) | inactive
COc1ccc(S(=O)(=O)CCC(=O)N2CCN(c3ccc([N+](=O)[O-])cc3)CC2)cc1 | inconclusive: 25.1 µM [inhibitor, single point]
Cc1cc(C)n(S(=O)(=O)c2ccccc2)n1 | inactive
CCC/C=C1/CCCOC(C(=O)NCc2ccccc2)(C(F)(F)F)C1 (stereo not given) | active: 0.891 µM
O=C(NCC1CCCO1)NC1(C(F)(F)F)Oc2ccccc2O1 (stereo not given) | inconclusive: 31.6 µM [inhibitor, single point]
Cc1ccc(OCCNC(=O)CNC(=O)c2ccc3c(c2)OCO3)cc1 | inactive
COc1cccc(C(=O)Nc2cc(NC(=O)c3ccco3)ccc2OC)c1 | inconclusive: 14.1 µM [inhibitor, single point] and inconclusive: 31.6 µM [inhibitor, single point]
O=C(O)/C=C/c1ccc2c(-c3ccccc3)onc2c1 | inconclusive: 31.6 µM [inhibitor, single point]
CCn1c(COc2cccc(C)c2C)nnc1SCC(=O)N1CCN(c2ccc(OC)cc2)CC1 | inconclusive: 7.94 µM [inhibitor, partial curve]
Cc1cccnc1NC(=O)c1ccc(S(=O)(=O)NCc2ccco2)cc1 | inactive
Cc1ccc(C)c(OCC(=O)Nc2ccccc2C(=O)NC2CC2)c1 | inconclusive: 8.91 µM [inhibitor, partial curve]
CCN(CC(=O)NCCc1ccccc1)S(=O)(=O)c1ccccc1 | inconclusive: 3.55 µM [inhibitor, full curve, poor fit]
O=C(NC1CCCCC1)N(Cc1cc2cc3c(cc2[nH]c1=O)OCCO3)C1CCCCC1 | active: 11.2 µM
C(=N\n1cnnc1)/c1cn(-c2cccs2)nc1-c1ccccc1 | inconclusive: 25.1 µM [inhibitor, single point]
